From the supplement of paper PMC8728848
The list shows a part of the results.

Experiments:
Assay in all cases: glycan array binding signal (z-score within array); higher = stronger binding
Conditions in all cases: glycan notation: IUPAC condensed, linker removed; mutation: R343V
[1] = target: Gal3S(b1-4)GlcNAc6S
Summary of the method: (§1)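 Columns mapping to the same glycan were averaged after glycan names were converted to IUPAC-condensed notation. The data come from 3228 arrays in the Consortium for Functional Glycomics database, limited to those with an available protein sequence. Binding is reported as a within-array Z-score averaged across arrays of one protein sequence and across linkers.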

[2] = target: Gal3S(b1-4)[Fuc(a1-3)]Glc
Summary of the method: as §1

[3] = target: Gal3S4S(b1-4)GlcNAc
Summary of the method: as §1

[4] = target: Gal3S6S(b1-4)GlcNAc
Summary of the method: as §1

[5] = target: Gal3S6S(b1-4)GlcNAc6S
Summary of the method: as §1

[6] = target: Gal4S(b1-4)GlcNAc
Summary of the method: as §1

[7] = target: Gal4S6S(b1-4)GlcNAc
Summary of the method: as §1

[8] = target: Gal6S(b1-4)Glc
Summary of the method: as §1

[9] = target: Gal6S(b1-4)Glc6S
Summary of the method: as §1

[10] = target: Gal6S(b1-4)GlcNAc
Summary of the method: as §1

[11] = target: Gal6S(b1-4)GlcNAc6S
Summary of the method: as §1

[12] = target: GalNAc(a1-3)Gal
Summary of the method: as §1

[13] = target: GalNAc(a1-3)GalNAc
Summary of the method: as §1

[14] = target: GalNAc(b1-3)Gal
Summary of the method: as §1

[15] = target: GalNAc(b1-3)Gal(a1-4)Gal(b1-4)GlcNAc
Summary of the method: as §1

[16] = target: GalNAc(b1-3)GalNAc
Summary of the method: as §1

[17] = target: GalNAc(b1-4)GlcNAc
Summary of the method: as §1

[18] = target: Glc(a1-4)Glc
Summary of the method: as §1

[19] = target: Glc(a1-6)Glc(a1-6)Glc
Summary of the method: as §1

[20] = target: Glc(b1-4)Glc
Summary of the method: as §1

[21] = target: Glc(b1-6)Glc
Summary of the method: as §1

[22] = target: GlcA(b1-3)Gal
Summary of the method: as §1

[23] = target: GlcA(b1-3)GlcNAc
Summary of the method: as §1

[24] = target: GlcA(b1-6)Gal
Summary of the method: as §1

[25] = target: GlcNAc(a1-3)Gal(b1-4)GlcNAc
Summary of the method: as §1

[26] = target: GlcNAc(a1-6)Gal(b1-4)GlcNAc
Summary of the method: as §1

[27] = target: GlcNAc(b1-2)Gal(b1-3)GalNAc
Summary of the method: as §1

[28] = target: GlcNAc(b1-2)Man(a1-3)[GlcNAc(b1-2)Man(a1-6)]Man(b1-4)GlcNAc(b1-4)GlcNAc
Summary of the method: as §1

[29] = target: GlcNAc(b1-3)Gal
Summary of the method: as §1

[30] = target: GlcNAc(b1-3)Gal(b1-3)GalNAc
Summary of the method: as §1

[31] = target: GlcNAc(b1-3)Gal(b1-4)Glc
Summary of the method: as §1

[32] = target: GlcNAc(b1-3)Gal(b1-4)GlcNAc
Summary of the method: as §1

[33] = target: GlcNAc(b1-3)Gal(b1-4)GlcNAc(b1-3)Gal(b1-4)GlcNAc
Summary of the method: as §1

[34] = target: GlcNAc(b1-3)GalNAc
Summary of the method: as §1

[35] = target: GlcNAc(b1-3)Man
Summary of the method: as §1

[36] = target: GlcNAc(b1-3)[GlcNAc(b1-4)][GlcNAc(b1-6)]GlcNAc
Summary of the method: as §1

[37] = target: GlcNAc(b1-3)[GlcNAc(b1-6)]Gal(b1-4)GlcNAc
Summary of the method: as §1

B1: Surfactant Protein D (Human); Neck + Carbohydrate Recognition Domain (NCRD) (Homo sapiens) (protein)
chain: MLLFLLSALVLLTQPLGYLEAEMKTYSHRTMPSACTLVMCSSVESGLPGRDRDGREGPRGEKGDPGLPGAAGQAGMPGQAGPVGPKGDNGSVGEPGPKGDTGPSGPPGPPGVPGPAGREGALGKQGNIGPQGKPGPKGEAGPKGEVGAPGMQGSAGARGLAGPKGERGVPGERGVPGNTGAAGSAGAMGPQGSPGARGPPGLKGDKGIPGDKGAKGESGLPDVASLRQQVEALQGQVQHLQAAFSQYKKVELFPNGQSVGEKIFKTAQFVKPFTEAQLLCTQAGGQLASPRSAAENAALQQLVVAKNEAAFLSMTDSKTEGKFTYPTGESLVYSNWAPGEPNDDGGSEDCVEIFTNGKWNDVACGEKRLVVCEF
Question: Which results are given for B1?
Answer: glycan array binding signal (z-score) [1]: -0.266; glycan array binding signal (z-score) [2]: -0.385; glycan array binding signal (z-score) [3]: -0.325; glycan array binding signal (z-score) [4]: -0.329; glycan array binding signal (z-score) [5]: -0.189; glycan array binding signal (z-score) [6]: -0.246; glycan array binding signal (z-score) [7]: -0.307; glycan array binding signal (z-score) [8]: -0.379; glycan array binding signal (z-score) [9]: -0.394; glycan array binding signal (z-score) [10]: -0.272; glycan array binding signal (z-score) [11]: -0.371; glycan array binding signal (z-score) [12]: -0.511; glycan array binding signal (z-score) [13]: -0.455; glycan array binding signal (z-score) [14]: -0.55; glycan array binding signal (z-score) [15]: -0.526; glycan array binding signal (z-score) [16]: 0.991; glycan array binding signal (z-score) [17]: -0.51; glycan array binding signal (z-score) [18]: 0.852; glycan array binding signal (z-score) [19]: -0.515; glycan array binding signal (z-score) [20]: -0.032; glycan array binding signal (z-score) [21]: -0.022; glycan array binding signal (z-score) [22]: -0.453; glycan array binding signal (z-score) [23]: -0.499; glycan array binding signal (z-score) [24]: -0.463; glycan array binding signal (z-score) [25]: 2.55; glycan array binding signal (z-score) [26]: -0.497; glycan array binding signal (z-score) [27]: -0.453; glycan array binding signal (z-score) [28]: 3.08; glycan array binding signal (z-score) [29]: -0.139; glycan array binding signal (z-score) [30]: 1.72; glycan array binding signal (z-score) [31]: 1.72; glycan array binding signal (z-score) [32]: 1.61; glycan array binding signal (z-score) [33]: 2.08; glycan array binding signal (z-score) [34]: -0.284; glycan array binding signal (z-score) [35]: 0.518; glycan array binding signal (z-score) [36]: 3.11; glycan array binding signal (z-score) [37]: 2.86
